# Data published in PubChem BioAssay AID1508624 (National Center for Advancing Translational Sciences (NCATS), 2021).
# About 120 (0.25%) of roughly 48,000 compounds were called active. Inconclusive results (about 4%) are left out. The call rests on the fitted dose curve; in most records, active means well fitted activation curve with a large enough effect; inconclusive means small, poorly fitted or top-dose-only effect, or another doubt; inactive means no such curve, though single readings can be large or run the other way. This is one part of the list.
# Test: Primary qHTS for Identification of Small Molecule Activators of Huntingtin-Antisense Promoter Activity; further: nearly all actives have a fitted effect of over 55% in size
# Settings: HEK293 HTT-AS promoter firefly luciferase reporter (activity 0% = vehicle and -100% = no light), 24 h; series mostly up to 57.5 µM; activity change, positive = activation: at the top concentration
# In short: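 HEK293 Fluc reporter, 2,500 cells/well, 24 h pre-culture; cpds up to 57.5 uM final, 24 h 37 degrees C; Dual-Glo, 10 min RT; normalized vehicle = 0%, zero RLU = -100%.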
row,SMILES,"activity change, positive = activation"
1,COC(=O)c1ccccc1NC(=O)CCc1c(C)nc2c(c(C)nn2-c2ccccc2)c1C,inactive: 3.42%
2,COc1ccc(Cn2ccc3nc(C)c(C(=O)NCc4ccc(OC)cc4OC)cc3c2=O)cc1,inactive: -7.34%
3,COc1cccc(CNC(=O)CCCn2nc(C)n3c(cc4sccc43)c2=O)c1,inactive: 1.3%
4,COc1ccc(C2CC(=O)c3c([nH]c(C(=O)OC4CCCCCC4)c3C)C2)cc1OC (configuration not stated),inactive: -31.1%
5,CCN(C(=O)c1nn(-c2ccc(C)cc2)c(=O)c2c1c1ccccc1n2C)c1ccc(F)cc1,inactive: -1.32%
6,Cc1cccc(OCC(=O)N(Cc2ccc(C(C)C)cc2)Cc2ccco2)c1C,inactive: -23.9%
7,O=C(Nc1nnc(S(=O)(=O)N2CCCC2)s1)c1ccccc1F,inactive: 1.93%
8,Cc1ccc(N2CC(NC(=O)c3ccco3)CC2=O)cc1C (configuration not stated),inactive: -12.2%
9,O=C(NCCc1ccccc1)c1ccc(CSc2nc3ccncc3n2Cc2ccccc2F)cc1,inactive: 1.2%
10,CC(C)COc1ccc(-c2nonc2NC(=O)c2ccc(F)cc2)cc1,inactive: -20.3%
11,O=C(Cn1ncc2c([nH]c3ccccc32)c1=O)NCc1cccc(Cl)c1,inactive: -19.8%
12,CCOC(=O)c1cnc2c(C)cc(Cl)cc2c1NCCc1ccc(OC)c(OC)c1,inactive: -12.9%
13,CCOC(=O)c1cc(-c2ccc(F)cc2)n(CCC(=O)NCc2ccccc2OC)c1C,inactive: -35%
14,COc1ccc(NC(=O)C(C)n2c(C)c3cnn(-c4ccccc4)c(=O)c3c2C)cc1Cl (configuration not stated),inactive: -26.6%
15,COc1ccc(C(=O)Nc2nnc(S(=O)(=O)N3CCC(C)CC3)s2)cc1OC,inactive: -11.7%
16,O=C(c1cccc(F)c1)N1CCC(c2c[nH]c3ccccc23)(c2c[nH]c3ccccc23)CC1,inactive: -34.1%
17,CCN(C(=O)C1CCCN(c2ncnc3onc(-c4ccc(F)cc4)c23)C1)c1ccccc1 (configuration not stated),inactive: -4.12%
18,O=C(NCC1CCCO1)c1c[nH]c2ccc(S(=O)(=O)Nc3ccc(F)cc3F)cc2c1=O (configuration not stated),inactive: 6.72%
19,CCOc1ccc(NC(=O)NCCn2nnc3cc(S(=O)(=O)N(C)C)ccc32)cc1,inactive: -3.98%
20,CC(C)(C)c1ccc(-c2nc(S(=O)(=O)c3ccccc3)c(N3CCOCC3)o2)cc1,inactive: -22.2%
21,CC1CCCCN1Cc1c(O)ccc2c(=O)c(-c3ccccc3)coc12 (configuration not stated),inactive: -12.4%
22,Cc1ccc(CNC(=O)c2sc3nc(-c4ccc(F)cc4)ccc3c2N)cc1,inactive: -4.34%
23,CCOC(=O)C1=C(CN2CCCCC2)NC(=O)NC1c1ccc(C)cc1 (configuration not stated),inactive: -10.9%
24,COc1cccc(CNS(=O)(=O)c2ccc(N3CCCCS3(=O)=O)cc2)c1,inactive: -18.2%

row,SMILES,"activity change, positive = activation"
1,CCOc1ccc(C(CC(=O)Nc2cc(C)c(Cl)cc2OC)N2Cc3ccccc3C2=O)cc1OC (configuration not stated),inactive: -22.4%
2,Cc1cc2n(n1)CCC(=O)N2Cc1ccc(C(=O)Nc2ccc(Br)c(C)c2)cc1,inactive: -13.7%
3,COC(=O)c1c(NC(=O)COc2c(C)ccc(C)c2C)sc2c1CCC(C)C2 (configuration not stated),inactive: -7.35%
4,Cc1ccc(-n2nc(C(=O)Nc3cccc(C#N)c3)c3c4ccccc4n(C)c3c2=O)cc1,inactive: 9.37%
5,CC1=C(C(=O)Nc2cccnc2)C(c2ccc(Cl)cc2)n2nc(SCc3ccccc3)nc2N1 (configuration not stated),inactive: -8.2%
6,CCN(CC)c1cc2c(cc1F)c(=O)c(S(=O)(=O)c1ccc(C)cc1)cn2Cc1ccc(F)cc1,inactive: -7.42%
7,CCOc1ccc(NC(=O)[C@H](Cc2ccccc2)N2Cc3ccccc3C2=O)cc1,inactive: -17.2%
8,O=C(Cn1ncc2ccsc2c1=O)N1CCN(c2ccccc2)CC1,inactive: -3.17%
9,CCCSc1nc2c(c(=O)[nH]1)C(c1ccc(F)cc1F)CC(=O)N2 (configuration not stated),inactive: -21.5%
10,O=C(NCCc1ccc(Cl)cc1)c1nc(-c2cccc(F)c2)n2c1CCCCC2,inactive: -26.6%
11,CCCN1CCN(c2ncnc3sc(C(=O)Nc4cccc(Cl)c4C)c(C)c23)CC1,inactive: -12.5%
12,O=C(CC1N=C2c3ccccc3N=C(SCc3ccccc3Cl)N2C1=O)NCc1cccs1 (configuration not stated),inactive: 4.74%
13,CCc1cnn2c(NCc3ccc[n+]([O-])c3)cc(N3CCCC[C@@H]3CCO)nc12,inactive: -38.4%
14,COc1ccc(C(=O)NNc2ncnc3c2cnn3-c2ccccc2)cc1,inactive: -12.7%
15,CCOC(=O)C1CCCN(Cc2cn3c(-c4ccc(Br)cc4)nnc3s2)C1 (configuration not stated),inactive: -21.7%
16,CCOc1ccc(NC(=O)Cc2ccc(-n3c(C)nc4cccnc43)cc2)cc1,inactive: -12.8%
17,CC(=O)N1CCC(N(Cc2ccco2)C(=O)Nc2ccc(Br)cc2F)CC1,inactive: -1.69%
18,Cc1ccc(NC(=O)CN2C(=O)c3ccccc3Sc3ccc(C(=O)N4CCCC4)cc32)cc1,inactive: -27.8%
19,CCN(CC)CCNC(=O)c1[nH]c2ccccc2c1Sc1ccc(Cl)cc1,inactive: -3.46%
20,O=C(Nc1cc(Cl)ccc1Cl)c1cc(S(=O)(=O)N2CCCc3ccccc32)ccc1F,inactive: -19.6%
21,CN(C(=O)c1ccc2c(c1)N(Cc1ccccc1F)C(=O)c1ccccc1S2(=O)=O)C1CCCCC1,inactive: -35.4%
22,COc1ccc(NC(=O)C(NC(=O)/C=C\c2ccc3c(c2)OCO3)c2ccc(OC)cc2)cc1 (configuration not stated),inactive: -4.55%
23,COc1cc(NC(=O)c2nn(-c3ccc(F)cc3)c(=O)n(C)c2=O)cc(OC)c1OC,inactive: 2.8%
